# Measurements reported in PubChem BioAssay AID1476 (National Center for Advancing Translational Sciences (NCATS), 2009).
# Hit rate of the full screen: of about 200,000 compounds, about 4,500 (2.2%) were called active. The shares of active, inactive and inconclusive entries below differ from those in the screen. Calls follow the shape of the dose curve; as a rule, active = well fitted inhibition curve with a large enough effect; inconclusive = small, poorly fitted or top-dose-only effect, or effect the other way; inactive = flat fitted curve, though single readings scatter. A potency beside an inconclusive call is a rough fit, not a confirmed value.
# Target: Cruzipain (Trypanosoma cruzi) (UniProt P25779)
# UniProt P25779, sequence (P25779 whole entry, looked up): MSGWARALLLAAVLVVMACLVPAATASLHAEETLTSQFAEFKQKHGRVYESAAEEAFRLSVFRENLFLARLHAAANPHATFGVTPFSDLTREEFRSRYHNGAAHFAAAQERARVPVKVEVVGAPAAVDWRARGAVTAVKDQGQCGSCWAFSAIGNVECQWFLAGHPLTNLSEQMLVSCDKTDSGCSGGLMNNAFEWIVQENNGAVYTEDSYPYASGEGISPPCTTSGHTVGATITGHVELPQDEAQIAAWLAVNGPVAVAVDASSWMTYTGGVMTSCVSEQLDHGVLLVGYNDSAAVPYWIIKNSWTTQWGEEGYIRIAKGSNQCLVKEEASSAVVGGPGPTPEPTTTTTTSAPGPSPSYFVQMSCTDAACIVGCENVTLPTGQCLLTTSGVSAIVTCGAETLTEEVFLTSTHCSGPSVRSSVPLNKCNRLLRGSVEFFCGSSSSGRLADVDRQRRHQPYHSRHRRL
# Test: qHTS Assay for Promiscuous and Specific Inhibitors of Cruzain (without detergent); also: nearly all actives have a fitted effect of over 40% in size;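 as to max response, negative = inhibition: plate controls were enzyme without inhibitor for no effect and buffer without enzyme for full effect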
# Details: purified cruzain, Z-FR-AMC fluorescence, no detergent
# Method in brief: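 Detergent-free condition (0.00005% Triton X-100) in acetate buffer pH 5.5 with DTT. 1.5 nM enzyme and compound were pre-mixed 15 min, then 2 uM Z-FR-AMC substrate added; reaction progress from fluorescence change between first and third reads (60 s).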
# Potency is read from the fitted curve at half-maximal effect; tags tell the direction and shape of the fitted curve.
SMILES,Potency,"max response, negative = inhibition"
CN1c2ccccc2N(C)C1c1ccc2c(c1)OCO2,"inconclusive: 39.8 µM [inhibitor, single point]",
COc1cc(OC)cc(-c2cc3nc(C)c(CCC(=O)NC(C)CCc4ccco4)c(C)n3n2)c1 (stereo not drawn),"inconclusive: 31.6 µM [activator, single point]",
CCCCNc1nc2c(c(=O)n(Cc3ccc(Cl)c(Cl)c3)c(=O)n2C)n1C,,inactive: -2.16%
CC(C)(C)c1ccc(C(=O)NC(Cc2c[nH]c3ccccc23)C(=O)OCC(=O)c2ccc(Cl)cc2)cc1 (stereo not drawn),active: 25.1 µM,
CCOc1ccc(NC(=O)Cn2cc(S(=O)(=O)N3CCN(c4ccccc4F)CC3)c3ccccc3c2=O)cc1,active: 15.8 µM,
COc1ccc(-c2noc(-c3ccc(N4CCC(C)CC4)c([N+](=O)[O-])c3)n2)cc1OC,active: 20 µM,
COc1ccc(N(CC(=O)N2CCN(c3ccc(F)cc3)CC2)S(=O)(=O)c2c(C)n[nH]c2C)cc1,"inconclusive: 31.6 µM [activator, partial curve]",
Cc1ccc(CNC(=O)CSc2nc3n[nH]c(C)c3c(=N)n2-c2cccc(C)c2)cc1,"inconclusive: 39.8 µM [activator, single point]",
COc1ccc(Cn2ccc3nc(C)c(C(=O)NCc4ccc(C)cc4)cc3c2=O)cc1,"inconclusive: 25.1 µM [activator, partial curve]",
C[N+]1(CCC[N+]2(C)C[C@H]3[C@H](C2)[C@H]2C=C[C@@H]3CC2)CCOCC1 (stereo partly drawn),,inactive: 9.76%
Cc1ccc(C)c(N2CCN(C(=O)CCn3c(=O)[nH]c4ccccc4c3=O)CC2)c1,,inactive: -2.72%
CCOc1ccc(CCNC(=O)CCN2N=C(c3ccc(OC)cc3)CCC2=O)cc1OCC,"inconclusive: 31.6 µM [activator, single point]",
O=C1c2cccc3cccc(c23)N1CN1CCN(c2ccccn2)CC1,"inconclusive: 39.8 µM [inhibitor, single point]",
COc1ccccc1-n1cnc2cc(NS(=O)(=O)c3ccc(Br)cc3)ccc21,"inconclusive: 39.8 µM [inhibitor, single point]",
CN1/C(=C\C(=S)NC(=O)c2ccccc2Cl)C(C)(C)c2ccccc21,active: 31.6 µM,
CCC(=O)N(C)C(c1ccccc1Cl)c1nnnn1-c1c(C)cccc1C (stereo not drawn),"inconclusive: 1.58 µM [inhibitor, partial curve]",
Cc1ccc(-c2nnc(NCc3nc4ccccc4[nH]3)c3ccccc23)cc1S(=O)(=O)N1CCOCC1,"inconclusive: 39.8 µM [inhibitor, single point]",
COc1ccc(CN(Cc2ccco2)c2cnc(S(C)(=O)=O)nc2C(=O)Nc2ccc(C)c(C)c2)cc1,active: 20 µM,
COc1ccc(CCNC(=O)N2CCOCC2)cc1,"inconclusive: 0.1 µM [activator, partial curve, poor fit]",
CCCNC(=O)c1ccc2nc(-c3ccccc3)c(-c3ccccc3)nc2c1,"inconclusive: 39.8 µM [activator, single point]",
COc1cc2c(cc1OC)C(COc1ccc3c(C)cc(=O)oc3c1)N(C(=O)c1ccco1)CC2 (stereo not drawn),"inconclusive: 15.8 µM [activator, partial curve]",

SMILES,Potency,"max response, negative = inhibition"
Cc1cccc(C)c1OCCn1c(C2CC(=O)N(Cc3ccc(F)cc3)C2)nc2ccccc21 (stereo not drawn),,inactive: 20.7%
C/C(=N\Nc1nc(-c2ccc(C)cc2C)cs1)c1cc2ccccc2oc1=O,"inconclusive: 39.8 µM [inhibitor, single point]",
O=C1CCCN1CCCNc1ncnc2c1[nH]c1ccc(Cl)cc12,active: 15.8 µM,
CCOc1ccc(NC(=O)Nc2ccc3c(c2)N(C)C(=O)CS3)cc1,"inconclusive: 25.1 µM [inhibitor, single point]",
COc1cccc(/C=C/C(=O)OCC(=O)c2c[nH]c3ccccc23)c1OC,"inconclusive: 25.1 µM [inhibitor, single point]",
O=[N+]([O-])c1ccc(Cl)c(C2Nc3cccc4cccc(c34)N2)c1,"inconclusive: 31.6 µM [inhibitor, single point]",
Cn1c(=O)c2c(nc(NCc3ccccc3)n2CC(=O)NCc2ccccc2)n(C)c1=O,"inconclusive: 25.1 µM [activator, single point]",
Cc1oc(/N=C/c2c(O)ccc3ccccc23)c(C#N)c1C,active: 12.6 µM,
Cc1cccc(C(=O)N2CCC(=O)N(C(COCc3cccc(C(F)(F)F)c3)Cc3ccccc3)CC2)c1 (stereo not drawn),"inconclusive: 25.1 µM [activator, partial curve]",
CN1C[C@H](C(=O)N[C@]2(C)O[C@@]3(O)[C@@H]4CCCN4C(=O)[C@H](Cc4ccccc4)N3C2=O)C=C2c3cccc4[nH]cc(c34)C[C@H]21,"inconclusive: 31.6 µM [activator, partial curve, poor fit]",
O=C(Nc1cc(S(=O)(=O)N2CCCCC2)ccc1Cl)c1ccccc1NS(=O)(=O)c1ccc(F)cc1,"inconclusive: 25.1 µM [inhibitor, single point]",
CCNc1sc(C(=O)c2cccs2)c(N)c1-c1nc2ccccc2s1,active: 7.94 µM,
Cc1ccc(C(=O)N/C(=C\c2ccc(-c3ccc(Br)cc3)o2)C(=O)NC2CCS(=O)(=O)C2)cc1 (stereo not drawn),"inconclusive: 25.1 µM [activator, partial curve]",
Cc1cc(OCC(=O)OC(C)C)c2c3c(c(=O)oc2c1)CCCC3,"inconclusive: 39.8 µM [activator, single point]",
CCCN(CCC)S(=O)(=O)c1ccc(C(=O)Nc2nc3c(s2)CCc2ccccc2-3)cc1,active: 7.94 µM,
CC(=O)N1CCc2c(sc3c2c(=O)n(-c2cccc(Cl)c2)c(=O)n3Cc2ccc(F)cc2Cl)C1,"inconclusive: 25.1 µM [activator, single point]",
Cc1nn(C)c2c1c(C(F)(F)F)cc(=O)n2CC(=O)N1CCN(c2ccccc2F)CC1,"inconclusive: 25.1 µM [activator, single point]",
CCN(CC)c1cc(C)c2cc(NC(=O)/C=C/c3ccccc3OC(C)C)ccc2n1,"inconclusive: 25.1 µM [activator, single point]",
CCN(CC)c1ccc(NS(=O)(=O)c2ccc(-c3coc(C)n3)cc2)c(C)c1,,inactive: -13.8%
CC1CCN(c2nc3c(c(=O)n(C)c(=O)n3C)n2CCSc2nc3ccccc3s2)CC1,"inconclusive: 31.6 µM [activator, single point]",
Cc1cc2cc(CNC(=O)NC3CCCCC3)ccc2n1C,"inconclusive: 39.8 µM [inhibitor, single point]",

SMILES,Potency,"max response, negative = inhibition"
CC(C)CC(=O)NC(=S)Nc1nc(-c2ccc(Cl)cc2)cs1,"inconclusive: 31.6 µM [inhibitor, single point]",
CC(C)Oc1ccc(Br)cc1/C=N\NC(N)=S,active: 0.0316 µM,
CC(=O)NCCC(=O)Nc1nc(-c2cccs2)c(-c2cccs2)s1,"inconclusive: 39.8 µM [inhibitor, single point]",
Cc1ccc(Nc2nc(N)nc(N)c2S(=O)(=O)c2ccccc2)cc1,,inactive: -20.4%
CCc1ccc(-n2c(N3CCN(c4cccc(C)c4C)CC3)nc3ccccc3c2=O)cc1,"inconclusive: 12.6 µM [inhibitor, partial curve, poor fit]",
COCCNC(=O)CSc1nnc(NC(=O)Nc2ccc(C)cc2)s1,,inactive: 10.3%
COc1ccccc1N1CCN(C(=O)C2CCCN(S(=O)(=O)c3ccc4c(c3)oc(=O)n4C)C2)CC1 (stereo not drawn),"inconclusive: 31.6 µM [activator, single point]",
COc1cc2c(cc1NC(=S)Nc1cccc(C)c1)oc1ccccc12,active: 31.6 µM,
O=C(CC1S/C(=N/N=C/c2cccs2)NC1=O)Nc1ccc(Cl)cc1 (stereo not drawn),,inactive: -26.7%
CCOC(=O)c1c(C)oc2ccc(OCc3cc(C(=O)OC)oc3C)cc12,"inconclusive: 20 µM [activator, single point]",
C=CCn1c(SCC(=O)c2c(N)n(C)c(=O)n(C)c2=O)nc2sc(CC)cc2c1=O,"inconclusive: 39.8 µM [activator, single point]",
O=C(NCc1ccccc1Cl)c1ccc(-c2ccccc2)cc1,"inconclusive: 39.8 µM [inhibitor, single point]",
COc1cccc2sc(Nc3nc(C)c(C(C)=O)s3)nc12,"inconclusive: 31.6 µM [activator, partial curve]",
COc1ccc(CCN(C(=O)c2cccc(F)c2)C2CC(=O)N(c3ccc(OC)cc3)C2=O)cc1 (stereo not drawn),"inconclusive: 31.6 µM [activator, single point]",
N#CCc1nn(-c2ccc(Cl)cc2)c(N)c1C#N,"inconclusive: 39.8 µM [inhibitor, single point]",
Cc1ccc(NC(=O)C2CCCN(S(=O)(=O)c3ccc(F)cc3)C2)cc1 (stereo not drawn),,inactive: 9.15%
Cc1cc(C(=O)COc2cccc(-n3cnnn3)c2)c(C)n1-c1ccccc1,active: 20 µM,
CN(C)CN1C(=O)S/C(=C2/C(=O)N(CN(C)C)c3ccccc32)C1=O,,inactive: -0.237%
Cc1ccc(S(=O)(=O)c2nc(Nc3nccs3)sc2Cl)cc1,"inconclusive: 31.6 µM [inhibitor, single point]",
O=C1CC(N2CCN(C3CC(=O)N(CCc4ccccc4)C3=O)CC2)C(=O)N1CCc1ccccc1 (stereo not drawn),"inconclusive: 31.6 µM [activator, partial curve]",
CN(C)S(=O)(=O)c1ccc(N2CCCC2)c(C(=O)Nc2ccccc2N2CCOCC2)c1,"inconclusive: 39.8 µM [activator, single point]",
